Experimental data as given in PubChem BioAssay AID485313 (National Center for Advancing Translational Sciences (NCATS), 2010).
Several values for one entry are separate records, joined by “and”; a condition that tells them apart may be missing. Equal entries are not always repeated. The whole screen tested about 320,000 compounds, of which about 7,600 (2.4%) were called active. The shares of active, inactive and inconclusive entries below differ from those in the screen. The call rests on the fitted dose curve; in most records, active means well fitted activation curve with a large enough effect; inconclusive means small, poorly fitted or top-dose-only effect; inactive means no such curve, though single readings can be large or run the other way. Where the call is inconclusive, the potency comes from a doubtful curve fit.

Assay: qHTS Assay for NPC1 Promoter Activators; further: nearly all actives have a fitted effect of over 60% in size;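 on activation: reporter is driven by a mutant NPC1 promoter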
Conditions: Huh7 NPC1 promoter luciferase reporter, 24 h; series mostly up to 9.22 µM
In short: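 Stable NPC1-promoter luciferase Huh7 line; cpd (DMSO) 24 h, 37 °C, 5% CO2; Amplite luciferase reagent 10 min RT; luminescence readout. qHTS format.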
Potency means the concentration at half of the fitted maximal effect; tags describe the fitted curve by direction and shape.

Potency, active:
COc1ccccc1N1CCN(/N=C\c2ccc(C)o2)CC1 3.55 µM, CN(C)CCNC(=S)Nc1ccc(-c2nc3ccccc3[nH]2)cc1 2.24 µM, Cc1ccc2nc(SCC3CCCCO3)[nH]c2c1 (stereo not given) 0.398 µM, COc1cc(C(=O)Nc2nc3ccccc3[nH]2)ccc1OC(F)F 1.41 µM, CCC(=O)Nc1ccc2c(c1)C(=O)c1ccccc1C2=O 1.58 µM, COc1ccc(C(=O)N/N=C(/C)c2cccc(NC(=O)C(F)(F)F)c2)cc1 3.55 µM, Cc1nn2cc(-c3ccc(Cl)cc3)cnc2c1Br 2.24 µM, Cc1ccc(Cn2cccc(-c3nc4ccccc4s3)c2=O)cc1 2.82 µM, Nc1nc2c(s1)CCc1c-2cnn1-c1ccccc1 0.794 µM, Cc1ccc(N=Nc2c(O)[nH]c3ccc(F)cc23)cc1 3.16 µM

Potency, inconclusive:
COc1ccc(/C=C/c2nc3ccccc3c(=O)o2)cc1 0.282 µM [activator, full curve], Cc1ccc(/C(N)=N/OC(=O)Cc2cccs2)cc1 3.98 µM [activator, single point], O=C(Nc1nc2ccccc2s1)c1c(F)cccc1Cl 2.82 µM [activator, partial curve], CN(C)S(=O)(=O)c1ccc2c(c1)/C(=C/c1cc3c([nH]1)CCCC3)C(=O)N2 3.98 µM [activator, partial curve] and 2.06 µM [activator, full curve], Cc1ccc(-c2nn(-c3ccccc3)cc2CO)cc1 5.62 µM [activator, single point], O=C(NCCCc1ccccc1)c1ccccc1 2.51 µM [activator, partial curve], Cn1c(N)c(C(=O)/C=C/c2ccccc2)c(=O)[nH]c1=O 5.01 µM [activator, single point], CCS(=O)(=O)Nc1cccc(-c2nc3cccnc3s2)c1 3.16 µM [activator, partial curve], O=C1NC(c2ccc(Br)cc2)Nc2sc3c(c21)CCC3 (stereo not given) 5.01 µM [activator, single point], C=C(C)CNC(=S)Nc1nc2c(cc1C(=O)OCC)CCCC2 3.98 µM [activator, single point], Clc1ccc(/C=N/Nc2nnc(Cl)c3ccccc23)cc1 5.01 µM [activator, single point], C/C(=N\NC(=O)c1csc(C)c1C)c1ccc(Cl)s1 3.55 µM [activator, single point], O=C(Nc1ccc(N2CCCCC2)cc1)c1ccccn1 0.1 µM [activator, partial curve], Cc1ccccc1-c1cc(-c2ccccc2O)on1 3.55 µM [activator, single point], Cc1ccc(-c2nnc(CCC(=O)NCC3C4CC5CC(C4)CC3C5)o2)s1 (stereo not given) 3.16 µM [activator, partial curve], CCC(=O)Nc1cccc(NC(=S)NC(=O)c2ccc(Cl)cc2)c1 2.24 µM [activator, partial curve], CSc1cccc(NC(=O)c2cccc3cccnc23)c1 2.51 µM [activator, partial curve], O=C(Cn1nc(-c2ccc(Cl)cc2)c2ccccc2c1=O)NCC1CCCO1 (stereo not given) 0.794 µM [activator, single point], Cc1ccc(CC(=O)Nc2cccc(C)n2)cc1 3.55 µM [activator, partial curve], O=C(Nc1ccc2ncccc2c1)c1cc(Cl)ccc1Cl 3.55 µM [activator, partial curve], COc1ccc2c(n1)Sc1nc3ccccc3nc1N2 3.55 µM [activator, single point], O=C(NCc1cccnc1)c1cc(-c2ccco2)on1 3.55 µM [activator, partial curve], FC(F)(F)Oc1ccc(-c2cn3cccnc3n2)cc1 1.78 µM [activator, partial curve], N#C/C(C(=O)N1CCCCC1)=C1\Nc2ccccc2S1 4.47 µM [activator, partial curve], O=C(N/N=C/c1ccc(Br)s1)c1cccs1 3.55 µM [activator, partial curve], NC(=O)c1ccccc1-c1nc(-c2ccccc2)no1 3.16 µM [activator, single point], S=C(NCCc1ccccn1)NC1CC2CCC1C2 (stereo not given) 6.31 µM [activator, single point], CC1CCC(NC(=O)c2ccc(N3CCCC3=O)cc2)CC1 (stereo not given) 4.47 µM [activator, single point], Cc1cc(C(=O)N/N=C/c2cccc([N+](=O)[O-])c2)c(C)n1-c1ccccc1 5.62 µM [activator, single point], CSc1ccc(/C=C/C(=O)NC(=O)c2ccccc2O)cc1 3.98 µM [activator, single point], Cc1ccc(S(=O)(=O)CC(=O)c2ccc3c(c2)OCCO3)cc1 3.55 µM [activator, single point], NS(=O)(=O)c1ccc2nc(NC(=O)Nc3ccc(F)cc3)sc2c1 3.16 µM [activator, partial curve], CCc1nc(SCc2ccc(OC)cc2)n[nH]1 4.47 µM [activator, single point], O=C(Nc1ccc(N2CCCCC2)cc1)C(Cl)c1ccccc1 (stereo not given) 2.82 µM [activator, partial curve], O=C(Cc1noc2ccccc12)Nc1ccccn1 3.55 µM [activator, single point], CCC1(C)NC(=O)N(/N=C/c2ccc(C)s2)C1=O (stereo not given) 3.16 µM [activator, partial curve], Nc1nnc(COc2ccc(Br)cc2Br)s1 3.16 µM [activator, partial curve], CCn1nc(C)c(CNC(=O)Nc2ccc3c(c2)OCO3)c1C 3.16 µM [activator, partial curve], Oc1ccc(/C=N/Nc2ncc(Br)cn2)c(O)c1 3.55 µM [activator, single point], Cc1ccc(C(=O)c2cc3ccccc3o2)cc1[N+](=O)[O-] 3.98 µM [activator, single point], CCCN(CC(=O)Nc1ccccc1C)C(=O)COc1ccc2c(c1)CCC2 1.26 µM [activator, single point], O=[N+]([O-])c1ccc(NNC(=S)Nc2ccccc2)cc1 3.98 µM [activator, partial curve]

Potency, inactive:
O=C(O)c1cc2nc(-c3ccccc3)cc(-c3ccccc3)n2n1, CCN(CC)C(=O)c1[nH]cnc1C(=O)NCC(=O)OC(C)(C)C, Cc1ccccc1C1=N/C(=C/c2cccs2)C(=O)O1, CC(=O)c1cccc(NC(=O)COC(=O)COc2ccccc2C)c1, CN(C)/C=N/c1sc2c(c1C#N)CCC2, O=C(CC1CCCC1)NCCS(=O)(=O)N1CCN(c2ccccc2F)CC1, O=C(CN1CCCCC1)Nc1ccccc1-c1ccccc1, Cc1nnc(SCc2nc3ccccc3[nH]2)s1, COc1ccc(N=Cc2c[nH][nH]c2=O)cc1, CCCN(CCC)S(=O)(=O)c1ccc(NS(=O)(=O)c2ccc(F)cc2)cc1, C=CCNC(=O)c1ccccc1NC(=O)c1ccc(Cl)c(S(=O)(=O)Nc2ccccc2)c1, COc1ccccc1OCCNC(=O)CNC(=O)c1ccc2c(c1)OCO2, CN(c1ccccc1)S(=O)(=O)c1ccc(Cl)c(C(=O)Nc2ccncc2)c1, N#Cc1ccc(NC(=O)Cn2cnc(S(=O)(=O)N3CCc4ccccc43)c2)cc1, CCOC(=O)c1cnc(Nc2nc3ccccc3o2)nc1CN1CCN(C)CC1, CCC(=O)c1cn(CCOc2ccccc2OC)c2ccccc12, CS(=O)(=O)N1CCc2cc(C(=O)N3CCCCC3)ccc21, COc1ccc(-c2cc(C(=O)NN)[nH]n2)cc1, C/C(=N\NC(=O)c1c(Cl)c(C)nn1C)c1ccc(NC(=O)c2ccncc2)cc1, COc1ccc(/C=N/NC(=O)c2sc(C)nc2C)cc1, CCOC(=O)/C=C/[C@H]1CC(c2ccccc2)(c2ccccc2)CO1, Cc1ccc(-n2nc(C)c3c(C)c(CCC(=O)NCC4CCCO4)c(=O)n(C)c32)cc1 (stereo not given), Fc1ccccc1N1CC(c2ccccc2)C(c2cccs2)=N1 (stereo not given), Cc1cc(C)c(NC(=O)C2CCCN(S(=O)(=O)c3c(C)noc3/C=C/N(C)C)C2)c(C)c1 (stereo not given), C=CCNC(=O)c1onc(CSc2cc(C)ccc2C)c1C(=O)O, O=C(COC(=O)C12CC3CC(CC(C3)C1)C2)Nc1ccc([N+](=O)[O-])cc1Cl, CCC(C)(C)NC(=O)C(c1ccc(OC)cc1)N(Cc1cccs1)C(=O)CCC(=O)Nc1cc(C)on1 (stereo not given), COc1ccc(C(=O)N(C)C2CCCCC2)cc1S(=O)(=O)N1CCOCC1
